# In PubChem BioAssay AID686978 (National Center for Advancing Translational Sciences (NCATS), 2013):
# Where “and” joins values, the source holds several entries; their conditions need not be identical. Equal values may be shown once. The campaign covered roughly 420,000 compounds. About 64,000 (15%) were called active. The shares of active, inactive and inconclusive entries below differ from those in the screen. Calls follow the shape of the dose curve; as a rule, active = well fitted inhibition curve with a large enough effect; inconclusive = small, poorly fitted or top-dose-only effect; inactive = flat fitted curve, though single readings scatter. A potency beside an inconclusive call is a rough fit, not a confirmed value.
# Assay: qHTS for Inhibitors of human tyrosyl-DNA phosphodiesterase 1 (TDP1): qHTS in cells in absence of CPT; also: nearly all actives have a fitted effect of over 55% in size
# Conditions: DT40 Tdp1-/- hTDP1 cells, no CPT, ATP luminescence, 48 h; activity change, negative = growth inhibition: at 46.2 µM (top of the series) unless noted
# Method in brief: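 Cells were dispensed at 400 per well, compounds added by pin tool, plates incubated ≥48 hr at 37 °C, then CellTiter-Glo added for 30 min at room temperature before luminescence reading. Line: DT40 Tdp1-/- complemented with hTDP1; camptothecin omitted.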
# % is scaled to controls: 0 for no effect and ±100 for the full control effect; potency is read from the fitted curve at half-maximal effect; tags tell the direction and shape of the fitted curve.
Structure (SMILES),"activity change, negative = growth inhibition",Potency
COn1c(-c2ccccc2)nc2c1CCc1nonc1-2,inactive: -13.9%,
Cc1sc2ccccc2[n+]1CCCC[n+]1c(C)sc2ccccc21,,active: 2.51 µM
CCOc1ccc(OCCSc2nc(N)cc(=O)[nH]2)cc1,,"inconclusive: 29.1 µM [inhibitor, single point]"
O=C(NCc1ccccn1)NC12CC3CC(CC(C3)C1)C2,inactive: -16.3%,
CCOc1cc(NC(=S)NCCOC)c(OCC)cc1NC(=O)c1ccco1,,"inconclusive: 29.1 µM [inhibitor, single point]"
O=C(O)CCCCCN1C(=O)/C(=C/c2cn(-c3ccccc3)nc2-c2cccs2)SC1=S,,active: 14.6 µM
CC1CCN(Cc2ccc(NC(=O)C3CCN(c4nnc(-n5cccc5)s4)CC3)cc2)CC1,,"inconclusive: 23.1 µM [inhibitor, single point]"
CN(CC(=O)Nc1ccccc1Cl)C(=O)c1ccccc1Sc1ccccc1C#N,inactive: -1.23%,
COc1cccc(CCc2nnc(CCC(=O)NC(C)Cc3cccs3)o2)c1 (configuration not stated),inactive: -18.4%,
COCCCN1C(=O)C2C(C(=O)Nc3cccc(Cl)c3)C3C=CC2(O3)C1C(=O)NC1CCCCC1 (configuration not stated),inactive: -0.154%,
CCSc1nsc(NC(=O)Nc2ccccc2OC)n1,,"inconclusive: 25.9 µM [inhibitor, single point]"
Cc1nc(N2CCN(C(=O)c3ccc(Cl)cc3)CC2)c(C#N)c2c1COC(C)(C)C2,,"inconclusive: 23.1 µM [inhibitor, single point]"
CCCN(CC(=O)NC(=O)NC1CCCCC1)CC(=O)Nc1cc(Cl)ccc1Cl,,"inconclusive: 29.1 µM [inhibitor, single point]"
O=C1NC2c3c(Cl)sc(Cl)c3C(=O)C2O1 (configuration not stated),,active: 20.6 µM
CCn1c(=O)cc(OCC(=O)NCc2ccccc2Cl)c2ccccc21,,"inconclusive: 29.1 µM [inhibitor, single point]"
COC(=O)c1ccc(CO/N=C2\CCCc3nonc32)cc1,inconclusive: -32.1% [inhibitor],
CCCn1c(CNC(=O)Cc2ccccc2)nc2ccccc21,inactive: -0.207%,
COc1ccc(CCN2CNc3c(c(=O)n(C)c(=O)n3C)C2)cc1OC,inactive: -22.6%,
Cc1oc2nc(SCC(=O)Nc3ccc(S(N)(=O)=O)cc3)nc(NC(=O)c3ccccc3)c2c1C,inconclusive: -31.4% [inhibitor],
CCN(CC)C(=O)c1sc2c(c1C)c(=O)n(-c1ccc(C)c(C)c1)c(=O)n2Cc1cc(=O)n2c(C)cccc2n1,,"inconclusive: 23.1 µM [inhibitor, single point]"
COc1ccc2c(c1)-c1nc(NC(=O)c3ccccc3F)sc1CC2,,"inconclusive: 16.4 µM [inhibitor, single point]"
CC(=O)C(C(C)=O)C(NC(=O)c1cccnc1)(C(F)(F)F)C(F)(F)F,,active: 11.6 µM
Cc1cccc(-c2nnc3sc(-c4ccccc4C)nn23)c1,,active: 14.6 µM
COc1ccc(CNC(=O)CSc2ncc3c(n2)-c2cc(Cl)ccc2N(Cc2ccccc2)S3(=O)=O)cc1OC,,active: 11.6 µM
COc1ccnc(-n2cccc2/C=N/O)c1C#N,inactive: -16.1%,
O=C(NNC(=O)c1cccc2ccccc12)c1ccc(Cl)cc1Cl,,"inconclusive: 29.1 µM [inhibitor, partial curve, poor fit]"

Structure (SMILES),"activity change, negative = growth inhibition",Potency
CC(=O)N(C)c1ccc(NC(=S)NCC(C)C)cc1,inactive: 10.8%,
CCOc1ccc2[nH]c(=O)c(CN(CCc3ccccc3)C(=O)N3CCCC3)cc2c1,,"inconclusive: 12.6 µM [inhibitor, single point]"
Cc1nnc(SCc2nc(-c3ccc(Cl)cc3)no2)n1-c1ccc(F)cc1,,active: 25.9 µM
Cc1cc[n+](Cc2ccccc2)c(N)c1,inactive: -16.4%,
CCS(=O)(=O)c1ccc2oc(Nc3ccccc3Br)nc2c1,,"inconclusive: 23.1 µM [inhibitor, single point]"
COc1cc(C#Cc2ccc3cc(CCCO)oc(=O)c3c2)cc(OC)c1,,active: 1.03 µM
CCc1ccc2nc(N(CCCN(C)C)C(=O)c3ccc(S(=O)(=O)N(C)C4CCCCC4)cc3)sc2c1,,"inconclusive: 20.6 µM [inhibitor, single point]"
Cc1nnc2ccc(-c3ccc(NS(=O)(=O)c4ccc(Cl)s4)cc3)nn12,,"inconclusive: 29.1 µM [inhibitor, single point]"
O=C(c1ccccc1)n1nc(-c2ccco2)nc1NCc1cccs1,,"inconclusive: 32.6 µM [inhibitor, single point]"
CC1(C)CC(=O)C2=C(C1)OC(N)=C(C#N)C2c1cccs1 (configuration not stated),inconclusive: -31.4% [inhibitor],
O=C(c1ccc2c(=O)n(-c3ccccc3)c(=S)[nH]c2c1)N1CCCCC1,,active: 6.51 µM
O=C(Cn1ncc2c([nH]c3ccccc32)c1=O)N1CCN(c2ccc(F)cc2)CC1,inactive: 21.5%,
Cc1cc(C)c2oc(C(=O)Nc3nnc(C(C)C)s3)cc(=O)c2c1,,"inconclusive: 18.4 µM [inhibitor, single point]"
Cc1ccc(Cn2cc(/C=C(/C#N)C(=O)Nc3cccc(Cl)c3)c3ccccc32)cc1,,"inconclusive: 5.17 µM [inhibitor, full curve]"
Cc1cccc(N(C)C(=O)CN(C)S(=O)(=O)c2ccc3[nH]c4c(c3c2)CCCC4)c1,,"inconclusive: 18.4 µM [inhibitor, single point]"
CCC(=O)NC(=S)Nc1cccc(-c2nc3ncccc3o2)c1,inconclusive: -30.6% [inhibitor],
CCc1ccc(NC2=CC(=O)CC(c3ccco3)C2)cc1 (configuration not stated),,"inconclusive: 18.4 µM [inhibitor, single point]"
Cc1ccc2nsnc2c1S(=O)(=O)N1CCOCC1,inactive: -8.13%,
C#CC(C)OC(=O)C(C)NC(=O)c1ccccc1 (configuration not stated),inactive: -11.3%,
CCN(CC)CCN1C(=O)C(=O)/C(=C(/O)c2ccc(OC)c(OC)c2)C1c1ccccn1 (configuration not stated),inactive: -8.13%,
NC(=O)c1sc2nc3c(c(-c4cccs4)c2c1N)CCCCC3,,"inconclusive: 10.3 µM [inhibitor, partial curve]"
Cc1cc(C)cc(C(O)c2ncc(-c3ccccc3)[nH]2)c1 (configuration not stated),inactive: -16.8%,
COc1ccc(S(=O)(=O)NCc2ccccn2)cc1OC,inactive: -3.08%,
O=C(CN1C(=O)C2C3C=CC(C4CC34)C2C1=O)Oc1ccccc1 (configuration not stated),inactive: 0.457%,
CC1CN(c2ccccn2)C(C)CN1C(=S)Nc1ccccc1 (configuration not stated),inactive: -0.804%,
O=C(Nc1cccc2ccccc12)c1cnn2c1NC(=C1CC1)C=C2C(F)F,,"inconclusive: 22.4 µM [inhibitor, single point]"

Structure (SMILES),"activity change, negative = growth inhibition",Potency
O=C(CCN1C(=O)[C@@H]2Cc3ccccc3CN2C1=O)NCc1ccccc1,inactive: 9.34%,
CCCSc1nc2c(c(=O)n(C)c(=O)n2C)n1Cc1ccc(C)cc1,,active: 16.4 µM
O=C(CCC1CCCC1)Nc1ccccc1-c1ccccc1,inconclusive: -33.7% [inhibitor],
CN(Cc1ccccc1)c1nc(-c2cccc([N+](=O)[O-])c2)nc2ccccc12,,active: 18.4 µM
COc1ccc(Sc2cc(C(F)(F)F)nc(-c3ccccn3)n2)cc1,inactive: -2.48%,
Cc1nc(NCc2c(F)cccc2F)sc1-c1ccn(CCN2CCOCC2)n1,inactive: -8.45%,
CC1(C(=O)NS(=O)(=O)c2ccccc2)CCN1C(=O)c1ccccc1 (configuration not stated),inactive: -0.114%,
CC(=O)Nc1ccc(N=Cc2c(O)c3ccccc3oc2=O)cc1,inactive: -10.5%,
CC(C)C(NS(C)(=O)=O)c1nnc2n1CCN(Cc1ccc(Cl)cc1)CC2 (configuration not stated),,"inconclusive: 8.2 µM [inhibitor, partial curve]"
COc1ccc(Cn2nnnc2CN2CCC(c3nc4ccccc4s3)CC2)cc1,,"inconclusive: 29.1 µM [inhibitor, single point]"
COc1ccc(CC(=O)Nc2c(C(=O)Nc3ccc(F)cc3)oc3ccccc23)cc1OC,,active: 20.6 µM
CCCC(=O)NC(c1cccs1)c1cc([N+](=O)[O-])c2cccnc2c1O (configuration not stated),,active: 13 µM
COc1ccc(-c2nc3ccccc3o2)cc1NC(=O)CSc1ccc(Cl)cc1,,"inactive and inconclusive: 14.6 µM [inhibitor, partial curve]"
COC(=O)c1c(N2C(=O)CC(Sc3ncccc3C(=O)O)C2=O)sc(C)c1C (configuration not stated),,"inconclusive: 18.4 µM [inhibitor, single point]"
O=C(C1CCCN(S(=O)(=O)c2cccc3nsnc23)C1)N1CCCCCC1 (configuration not stated),,"inconclusive: 32.6 µM [inhibitor, single point]"
Cc1cc(C)c(S(=O)(=O)NN=C2c3ccccc3[C@H]3Cc4csc[n+]4[C@@H]23)c(C)c1,,"inconclusive: 25.9 µM [inhibitor, single point]"
O=C(Nc1cccc(Cl)c1)c1nc[nH]c1C(=O)NCc1ccccc1,,"inconclusive: 29.1 µM [inhibitor, single point]"
Cc1cc2cc3c(cc2nc1SCC(=O)Nc1ccccc1)CCC3,,active: 12.6 µM
CCOC(=O)c1sc(=S)[nH]c1C,,"inconclusive: 16.4 µM [inhibitor, single point]"
Cc1nn(-c2ccc(N3CCCC3)nn2)c(C)c1CCC(=O)NCc1ccccc1F,inactive: -27.8%,
COc1cccc(CNC(=O)[C@@H]2CCCN2C(=O)[C@@H]2CCCN2C(=O)c2ccccc2)c1,,"inconclusive: 13 µM [inhibitor, partial curve, poor fit]"
COc1ccc(NC(=O)CSc2nnc(Cn3cnc4ccccc43)o2)cc1,inactive: -11.3%,
CCC1CCCCN1CCCNC(=O)c1c(O)nc2c(C)cccn2c1=O (configuration not stated),,inactive
Fc1ccc(Cn2nnnc2CN2CCc3ccccc3C2)cc1,,"inconclusive: 29.1 µM [inhibitor, partial curve, poor fit]"
C=CCOc1cccc(C2C(C(=O)c3ccc(C)o3)=C(O)C(=O)N2CCN2CCOCC2)c1 (configuration not stated),,"inconclusive: 13 µM [inhibitor, partial curve]"
